Source: the supplement of paper PMC3334620
Whole data set: some 33,000 sequences, median “E-score (-0.5 to 0.5)” near -0.011, cut for the highest 2% near 0.28. The list shows a part of the results.

target: T1, Gcr1 (UniProt P07261); test: PBM E-score (8-mer binding enrichment) (E-score (-0.5 to 0.5)); higher = stronger / more preferred TF binding; most listed sequences are background and not binding sites; settings: protein concentration: 100 nM; construct: GST-full length
T1 sequence: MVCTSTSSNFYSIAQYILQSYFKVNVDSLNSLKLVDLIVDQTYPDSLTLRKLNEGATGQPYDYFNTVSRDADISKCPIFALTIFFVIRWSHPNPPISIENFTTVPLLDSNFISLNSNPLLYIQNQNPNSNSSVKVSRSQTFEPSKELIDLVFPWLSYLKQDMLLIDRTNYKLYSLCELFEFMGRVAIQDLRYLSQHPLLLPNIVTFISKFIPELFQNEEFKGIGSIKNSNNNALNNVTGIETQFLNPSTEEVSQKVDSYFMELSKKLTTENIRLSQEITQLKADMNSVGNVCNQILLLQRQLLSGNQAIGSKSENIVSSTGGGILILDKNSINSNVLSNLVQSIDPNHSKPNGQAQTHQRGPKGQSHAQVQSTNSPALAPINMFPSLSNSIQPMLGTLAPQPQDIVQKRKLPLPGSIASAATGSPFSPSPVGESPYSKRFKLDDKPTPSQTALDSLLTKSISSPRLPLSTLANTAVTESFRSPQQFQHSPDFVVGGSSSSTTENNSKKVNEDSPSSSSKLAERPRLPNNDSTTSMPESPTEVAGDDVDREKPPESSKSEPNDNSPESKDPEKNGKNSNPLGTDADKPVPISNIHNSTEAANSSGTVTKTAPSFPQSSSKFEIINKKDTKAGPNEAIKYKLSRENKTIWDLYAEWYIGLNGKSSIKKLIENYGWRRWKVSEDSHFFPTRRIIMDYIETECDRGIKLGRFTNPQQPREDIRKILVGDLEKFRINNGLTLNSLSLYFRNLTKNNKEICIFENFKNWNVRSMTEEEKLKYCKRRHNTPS
Description: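 Universal 'all 10-mer' protein binding microarrays (Agilent AMADID 015681) probed with GST-tagged S. cerevisiae TFs (full-length or DBD) made by in vitro transcription/translation (PURExpress), about 100-200 nM. Bound TF was detected with fluorescent anti-GST. Each ungapped 8-mer (which stands for itself and its reverse complement) is scored by the PBM enrichment score (E-score), a modified Wilcoxon-Mann-Whitney statistic from -0.5 to +0.5, computed with the Universal PBM Analysis Suite. Scale: above 0.35 generally sequence-specific binding.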

Row | Sequence | PBM E-score
1 | CAGTAGCA | 0.0517
2 | GATTGAGC | 0.122
3 | ACCCTCCT | -0.0533
4 | AATCAGGC | 0.125
5 | GTTAAAGA | -0.0184
6 | AGTAAGAA | 0.0422
7 | AAGAGAAA | 0.00997
8 | GAAATTGA | 0.0998
9 | GCTCAACC | 0.104
10 | AGTTATCC | 0.0939
11 | TGCGGGAA | 0.132
12 | CTAGCTGA | -0.105
13 | ACGTGTCC | -0.0547
14 | AACCGCTG | -0.178
15 | AATACCAG | 0.051
16 | GCGTGGGA | -0.213
17 | CCAAACAC | -0.104
18 | AAAGCGAG | 0.238
19 | AAGACCTG | -0.116
20 | CACCCCCA | -0.122
21 | CGAAAGGA | -0.0964
22 | AAAGCACG | 0.0871

Row | Sequence | PBM E-score
23 | GCATTCTA | -0.0877
24 | TGAATACA | 0.199
25 | AAAAGTCT | -0.222
26 | AACGTAAC | -0.0742
27 | CATCAAGA | 0.0812
28 | AGCATGGA | -0.232
29 | AGCGACAG | -0.106
30 | CAAAATAG | 0.259
31 | CCTATAAC | 0.0176
32 | CCGAGTAC | 0.034
33 | AGAGCATC | 0.133
34 | GGCGGCGA | 0.0796
35 | TACGGCGA | -0.00837
36 | GTACAATA | -0.0357
37 | CAGGGCAA | -0.124
38 | AGTCAACA | 0.116
39 | GGGGGCAA | -0.121
40 | ACTCCCTG | -0.156
41 | CAGACCTC | -0.255
42 | AAGTCGTA | -0.0401
43 | ATATATCG | 0.094
44 | ATGCAGTC | -0.0604

Row | Sequence | PBM E-score
45 | ACAACAAT | -0.0494
46 | GATCTCCC | -0.0795
47 | GGCGCTCA | 0.032
48 | CTAACAGA | 0.172
49 | AGCTATTC | -0.136
50 | ACTTGGCT | 0.127
51 | CACCCGAG | 0.0333
52 | AATAAATA | 0.17
53 | GGTGAAAA | 0.0519
54 | CGCAGAGA | -0.257
55 | GCTAGTCA | 0.108
56 | AGCGACTC | -0.156
57 | GTGGTGTA | -0.109
58 | AGAAGCCG | 0.399
59 | CCCAAGAG | 0.0633
60 | AGGGCACC | 0.13
61 | TGAGTTAA | -0.314
62 | AATAAAGG | 0.217
63 | AGCTCCTG | 0.0278
64 | ACAGATCT | -0.232
65 | AAGGTCGC | 0.0942
66 | CTATTCAG | 0.0145

Row | Sequence | PBM E-score
67 | AAGGCAAC | 0.0785
68 | ACGGGACA | -0.0161
69 | CAGATTTA | 0.0919
70 | ACCGCCTC | -0.14
71 | AAAGATAC | 0.203
72 | AATCACCC | -0.169
73 | GCTGTAAC | -0.00592
74 | AGAGGGGC | -0.044
75 | ATGCCAGA | 0.167
76 | CGGGCGCC | 0.421
77 | AGTTGGCC | -0.15
78 | GCTTCCAC | 0.42
79 | ACCAAACT | 0.0265
80 | ACCATGAA | 0.0954
81 | GTGCATAA | -0.0455
82 | GTGGTCCA | 0.109
83 | ATATATCA | -0.112
84 | GCCCAAGA | 0.0111
85 | AAGATCCT | 0.0935
86 | AATTGAGG | 0.236
87 | AGTAACTA | 0.0992
88 | CAAATAAG | 0.115

Row | Sequence | PBM E-score
89 | ACACCCAC | 0.0847
90 | CCTCGGCC | -0.196
91 | CGTTATAC | -0.0132
92 | TTAAAGAA | 0.126
93 | CATCCGGC | -0.0247
94 | TAAGGGAA | 0.0495
95 | CATTCAAC | -0.143
96 | ATTAGATG | 0.118
97 | GAGACACA | -0.0726
98 | AAAAACTA | 0.133
99 | ACTTCAAC | -0.0331
100 | GTCGCCGA | 0.24
101 | AACCCGTC | -0.132
102 | GCAGTAAC | -0.0527
103 | ATACTCTA | -0.153
104 | CAGTAATG | 0.0898
105 | TACCGCTA | 0.0898
106 | TAGCCGAA | 0.0835
107 | CGTGTGGA | 0.0437
108 | CTTAGTCC | -0.0337
109 | TCACTAGA | 0.0498
